The campaign covered roughly 45,000 compounds. About 200 (0.44%) were called active. About 7% were inconclusive and are not listed. Calls come from the whole dose curve; as a rule, active = well fitted activation curve with a large enough effect; inconclusive = small, poorly fitted or top-dose-only effect; inactive = no such curve, though single readings can be large or run the other way. Some of the results follow.
assay: qHTS of TDP-43 Inhibitors: NCGC Sytravon Library Screen; details: yeast TDP-43 toxicity rescue, BacTiter-Glo growth, 24 h; series mostly up to 46.1 µM; growth rescue (activation): at the top concentration; note: 0% is about no effect; nearly all actives have a fitted effect of over 55% in size
How it was run: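 TDP-43-expressing yeast, pregrown in raffinose, seeded at OD600 0.02 in galactose medium with compound for 24 hr at 30 deg C. Growth read by BacTiter-Glo luminescence, so rescue of toxicity appears as activation.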

Row | SMILES | growth rescue (activation)
1 | Cc1ccc(CNC(=O)c2ccc3c(c2)NC(=O)C(N2CCOCC2)S3)cc1 (stereo unspecified) | inactive: -21.1%
2 | COc1ccc(CCNC(=O)c2ccc(=O)[nH]c2)cc1 | inactive: -4.23%
3 | CC(C)(C)c1ccc(OCCCNC2CCCC2)cc1 | inactive: -10.8%
4 | CCC1CCCCN1CCCNC(=O)c1ccc(CS(=O)(=O)Cc2ccccc2F)o1 (stereo unspecified) | inactive: -23.4%
5 | Cc1occc1C(=O)N/N=C/c1c(O)ccc2ccccc12 | inactive: 9.09%
6 | CCOc1ncccc1C(=O)NCCc1ccc(OC)cc1 | inactive: 27.8%
7 | O=C(O)c1cc(-c2ccc(N3CCOCC3)cc2)nn1-c1ccc(F)cc1F | inactive: -7.16%
8 | C/C(=N\NC(=O)c1cccs1)c1ccc2c(c1)OCO2 | inactive: -2.3%
9 | O=C(Nc1ccc([N+](=O)[O-])cc1)c1cccc(S(=O)(=O)Nc2ccccn2)c1 | inactive: -4.99%
10 | Oc1ccccc1-c1nc(NCc2ccccc2)c2ccccc2n1 | inactive: -3.88%
11 | CCOC(=O)c1n[nH]c(=O)c2ccccc12 | inactive: 1.4%
12 | Cc1cccc(NCc2ccccc2OCc2ccccc2F)c1 | inactive: 16.3%
13 | COc1cc(/C=C2\SC(=S)N(NC(=O)c3ccccc3OC)C2=O)ccc1O | inactive: -4.19%
14 | O=C(C1COc2ccccc2O1)N1CCN(c2ccccc2Cl)CC1 (stereo unspecified) | inactive: 0.636%
15 | CC(=O)Nc1ccc(C(=O)NCCc2ccccc2)cc1 | inactive: 1.01%
16 | CCn1cc(C2=NC(CC(C)C)CO2)c2ccccc21 (stereo unspecified) | inactive: -13.9%
17 | Cc1ccc(S(=O)(=O)N(C)C)cc1NC(=O)COc1ccc(-c2nnco2)cc1 | inactive: 1.44%
18 | C/C(CC(=O)Nc1ccc(C)c(Cl)c1)=N\NC(=O)c1ccco1 | inactive: 20.4%
19 | OCCN1CCN(c2ncnc3c2ncn3[C@H]2CN(Cc3ccc4c(c3)OCO4)C[C@@H](CO)O2)CC1 | inactive: 4.99%
20 | O=C(Nc1nccs1)c1ccc(Cl)c(S(=O)(=O)N2CCOCC2)c1 | inactive: 28.5%
21 | CC(=O)c1cccc(NC(=O)N2CCCC2C(=O)Nc2ccccc2C)c1 (stereo unspecified) | inactive: 16.8%
22 | O=C(COC(=O)c1ccco1)NC1CCCC1 | inactive: 11.7%
23 | Nc1c(C(=O)c2ccc(Cl)cc2)sc2nc3c(cc12)CCC3 | inactive: 17.2%
24 | CCOc1ccccc1NC(=O)C1=C(C)NC(=O)NC1c1cccs1 (stereo unspecified) | inactive: 8.99%

Row | SMILES | growth rescue (activation)
25 | Cc1ccc(NS(=O)(=O)c2ccc(Cl)s2)cc1S(=O)(=O)N(C)C | inactive: -1.59%
26 | Cc1ccccc1OCC(=O)Nc1ccc(S(=O)(=O)Nc2onc(C)c2C)cc1 | inactive: -14.2%
27 | Cc1ccc(NC(=O)c2ccccn2)c(Br)c1 | inactive: 20.8%
28 | CC(C)Oc1cccc(C(=O)N2CCCC2)c1 | inactive: 5.42%
29 | COc1cc(C(=O)NNC(=O)CCOc2ccccc2C)cc(OC)c1OC | inactive: 4.58%
30 | O=S(=O)(/C=C/c1ccccc1)N1CCN(c2nc(-c3ccccc3)nc3ccccc23)CC1 | inactive: 15.3%
31 | NC(=O)Nc1ccc(C(=O)OCC(=O)NC2CCCCC2)cc1 | inactive: 8.88%
32 | O=C(O)c1nccnc1C(=O)Nc1ccc(Cl)cn1 | inactive: -5.69%
33 | Cc1ccc(C(O)c2nc3ccccc3n2C(C)C)cc1 (stereo unspecified) | inactive: 17.6%
34 | COc1ccc(CNc2ncnc3sccc23)cc1OC | inactive: 25.6%
35 | O=C(O)C1CCCCC1C(=O)NCc1ccc(Cl)c(Cl)c1 (stereo unspecified) | inactive: 6.83%
36 | CSc1nc2nc(-c3cccs3)cc(C(F)(F)F)c2c(=O)[nH]1 | inactive: 2.88%
37 | CC(=O)Nc1ccc(C(=O)N2CCCCC2c2cc(C(=O)N3CCOCC3)no2)cc1 (stereo unspecified) | inactive: -8.3%
38 | Cc1ccc(C)c2c1cc(C)c1nnc(SCC(=O)Nc3nc4c(s3)CCCC4)n12 | inactive: 12.6%
39 | COC(=O)N/N=C\c1ccc(OC(=O)c2ccco2)cc1 | inactive: -17.6%
40 | Cc1ccc(NC(=O)c2ccc(Br)o2)cc1S(=O)(=O)N(C)C | inactive: -4.75%
41 | COc1ccc(C(=O)Nc2ccccc2)cc1S(=O)(=O)NCc1ccco1 | inactive: -8.51%
42 | CC(=O)c1ccc(Oc2ccc(C(=O)c3ccc(C)c(C)c3)cc2[N+](=O)[O-])cc1 | inactive: 11.6%
43 | S=C(NCCCN1CCOCC1)Nc1ccc(Cl)cc1Cl | inactive: 9.54%
44 | O=C(C[n+]1ccc(CCSc2ccc(F)cc2)cc1)c1ccccc1 | inactive: 12.4%
45 | Cc1ccc(S(=O)(=O)N(C)C)cc1NC(=O)C(C)OC(=O)c1cc[n+]([O-])cc1 (stereo unspecified) | inactive: 9.3%
46 | CCOc1cccc(/C=N/NC(=O)c2ccc3c(c2)OCCO3)c1O | inactive: -11.8%
47 | COc1ccc(N(C(=O)c2snc(C(N)=O)c2N)C(C(=O)NCC2CCCO2)c2ccc(C)o2)cc1OC (stereo unspecified) | inactive: 11.7%
48 | Cc1ccc(O)c(NC(=O)c2cc(-c3ccc(F)cc3)on2)c1 | inactive: -15.5%

Row | SMILES | growth rescue (activation)
49 | COC(=O)c1ccc(Cl)cc1NC(=O)NC(C)c1c(-n2cccc2)sc(C)c1C (stereo unspecified) | inactive: 14.5%
50 | Cc1cc(/C=C2\SC(=O)NC2=O)c(C)n1-c1ccc(N2CCOCC2)cc1 | inactive: 9.89%
51 | CCCCCc1ccc(OCCCC[n+]2cccc(C)c2)c(CCCCC)c1 | inactive: -87%
52 | Cc1ccnc2nc(C(=O)OCC(=O)c3ccccc3)nn12 | inactive: 1.06%
53 | O=C(O)C1Sc2[nH]c(=O)sc2C2c3cc(Br)ccc3OC(=O)C12 (stereo unspecified) | inactive: -13.8%
54 | CCOC(=O)C(NC(=O)c1ccccc1)=C1C=C(C)OC(C)=C1 | inactive: -1.05%
55 | O=C(COC(=O)/C=C/c1cccc(F)c1)NC1CC1 | inactive: 22.4%
56 | CC(CCc1ccccc1)NC(=O)C(=O)Nc1ccccc1 (stereo unspecified) | inactive: -6.89%
57 | COc1cc(OC)cc(C(=O)Nc2ccc(S(=O)(=O)Nc3ccccn3)cc2)c1 | inactive: 18.3%
58 | Cc1cc(F)ccc1-c1cc(C(=O)NCc2cc(C(F)(F)F)cc(C(F)(F)F)c2)[nH]n1 | inactive: -7.09%
59 | Cc1nc2ccccn2c1C(=O)NN=C1CCCC1 | inactive: -2.62%
60 | O=C(NC1CCCCC1)c1cc2cc(Br)ccc2o1 | inactive: 17.1%
61 | O=C(CSc1nnc(-c2ccco2)o1)N1CCCCC1 | inactive: -17.6%
62 | CCCC(C(=O)NCc1ccco1)N(Cc1ccco1)C(=O)CNS(=O)(=O)c1ccccc1 (stereo unspecified) | inactive: 14.8%
63 | Cc1cc2c(cc1S(=O)(=O)N(C)c1ccccc1)NC(=O)CO2 | inactive: 1.54%
64 | O=C(O)CCC(=O)N1N=C(c2ccc(Br)cc2)CC1c1cccc(Br)c1 (stereo unspecified) | inactive: 1.02%
65 | CCN(CC)C(=O)c1ccc(NS(=O)(=O)c2ccccc2)cc1 | inactive: -2.75%
66 | CC(C)Nc1nnc(Sc2ccc(Cl)cc2[N+](=O)[O-])s1 | inactive: 12.9%
67 | CC(C)N(Cc1cn[nH]c1-c1ccc(-c2ccccc2)cc1)Cc1nccn1C | inactive: 11.3%
68 | CCCCCc1nnc(NC(=O)Cn2cnc3ccccc3c2=O)s1 | inactive: 1.03%
69 | COC(=O)N=Nc1c(O)[nH]c2ccc(Br)cc12 | inactive: -6.19%
70 | Cc1ccc(C(=O)N2CCN(c3ccc(NC(=S)NC(=O)c4cccs4)cc3)CC2)cc1 | inactive: -24%
71 | CN(C)CCNc1nc(Oc2ccccc2)c2sccc2n1 | inactive: 7.99%

Source: PubChem BioAssay AID1347073 (National Center for Advancing Translational Sciences (NCATS), 2019)
